The supplement of paper PMC8728848
The list shows a part of the results.

Assays:
Assay in all cases: glycan array binding signal (z-score within array); higher = stronger binding
Details in all cases: glycan notation: IUPAC condensed, linker removed
[1] = molecular target: Fuc(a1-2)[GalNAc(a1-3)]Gal(b1-3)GlcNAc(b1-3)GalNAc
Outline: (§1)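 Arrays were curated from the Consortium for Functional Glycomics database, 3228 in total, and kept only where the protein sequence was available. Binding is expressed as a within-array Z-score. This score was averaged across arrays of the same protein sequence at different concentrations or buffers and across linkers, and negative values can be read as non-binding.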

[2] = molecular target: Fuc(a1-2)[GalNAc(a1-3)]Gal(b1-3)GlcNAc(b1-6)GalNAc
Outline: as §1

[3] = molecular target: Fuc(a1-2)[GalNAc(a1-3)]Gal(b1-4)Glc
Outline: as §1

[4] = molecular target: Fuc(a1-2)[GalNAc(a1-3)]Gal(b1-4)GlcNAc
Outline: as §1

[5] = molecular target: Fuc(a1-2)[GalNAc(a1-3)]Gal(b1-4)GlcNAc(b1-2)Man
Outline: as §1

[6] = molecular target: Fuc(a1-2)[GalNAc(a1-3)]Gal(b1-4)GlcNAc(b1-2)Man(a1-3)[Fuc(a1-2)[GalNAc(a1-3)]Gal(b1-4)GlcNAc(b1-2)Man(a1-6)]Man(b1-4)GlcNAc(b1-4)GlcNAc
Outline: as §1

[7] = molecular target: Fuc(a1-2)[GalNAc(a1-3)]Gal(b1-4)GlcNAc(b1-2)Man(a1-3)[Fuc(a1-2)[GalNAc(a1-3)]Gal(b1-4)GlcNAc(b1-2)Man(a1-6)]Man(b1-4)GlcNAc(b1-4)[Fuc(a1-6)]GlcNAc
Outline: as §1

[8] = molecular target: Fuc(a1-2)[GalNAc(a1-3)]Gal(b1-4)GlcNAc(b1-3)Gal(b1-4)GlcNAc
Outline: as §1

[9] = molecular target: Fuc(a1-2)[GalNAc(a1-3)]Gal(b1-4)GlcNAc(b1-3)Gal(b1-4)GlcNAc(b1-3)Gal(b1-4)GlcNAc
Outline: as §1

[10] = molecular target: Fuc(a1-2)[GalNAc(a1-3)]Gal(b1-4)GlcNAc(b1-3)GalNAc
Outline: as §1

[11] = molecular target: Fuc(a1-2)[GalNAc(a1-3)]Gal(b1-4)GlcNAc(b1-3)[Fuc(a1-2)[GalNAc(a1-3)]Gal(b1-4)GlcNAc(b1-6)]GalNAc
Outline: as §1

[12] = molecular target: Fuc(a1-2)[GalNAc(a1-3)]Gal(b1-4)GlcNAc(b1-6)GalNAc
Outline: as §1

[13] = molecular target: Fuc(a1-2)[GalNAc(a1-3)]Gal(b1-4)[Fuc(a1-3)]GlcNAc
Outline: as §1

[14] = molecular target: Fuc(a1-2)[GalNAc(a1-3)]Gal(b1-4)[Fuc(a1-3)]GlcNAc(b1-3)GalNAc
Outline: as §1

[15] = molecular target: Fuc(a1-2)[GalNAc(a1-4)]Gal(b1-4)GlcNAc
Outline: as §1

[16] = molecular target: Fuc(a1-2)[GalNAc(b1-3)]Gal
Outline: as §1

[17] = molecular target: Fuc(a1-3)GlcNAc
Outline: as §1

[18] = molecular target: Fuc(a1-3)[Gal(b1-4)]Glc6S
Outline: as §1

[19] = molecular target: Fuc(a1-3)[Gal(b1-4)]GlcNAc
Outline: as §1

[20] = molecular target: Fuc(a1-3)[Gal(b1-4)]GlcNAc(b1-2)Man
Outline: as §1

[21] = molecular target: Fuc(a1-3)[Gal(b1-4)]GlcNAc(b1-2)Man(a1-3)[Fuc(a1-3)[Gal(b1-4)]GlcNAc(b1-2)Man(a1-6)]Man(b1-4)GlcNAc(b1-4)GlcNAc
Outline: as §1

[22] = molecular target: Fuc(a1-3)[Gal(b1-4)]GlcNAc(b1-2)Man(a1-3)[Fuc(a1-3)[Gal(b1-4)]GlcNAc(b1-2)Man(a1-6)]Man(b1-4)GlcNAc(b1-4)[Fuc(a1-6)]GlcNAc
Outline: as §1

[23] = molecular target: Fuc(a1-3)[Gal(b1-4)]GlcNAc(b1-3)Gal(b1-3)[Fuc(a1-4)]GlcNAc
Outline: as §1

[24] = molecular target: Fuc(a1-3)[Gal(b1-4)]GlcNAc(b1-3)Gal(b1-4)[Fuc(a1-3)]GlcNAc
Outline: as §1

[25] = molecular target: Fuc(a1-3)[Gal(b1-4)]GlcNAc(b1-3)Gal(b1-4)[Fuc(a1-3)]GlcNAc(b1-3)Gal(b1-4)[Fuc(a1-3)]GlcNAc
Outline: as §1

[26] = molecular target: Fuc(a1-3)[Gal(b1-4)]GlcNAc(b1-3)GalNAc
Outline: as §1

[27] = molecular target: Fuc(a1-3)[Gal(b1-4)]GlcNAc(b1-6)GalNAc
Outline: as §1

[28] = molecular target: Fuc(a1-3)[Gal(b1-4)]GlcNAc(b1-6)[Gal(b1-3)GlcNAc(b1-3)]Gal(b1-4)Glc
Outline: as §1

[29] = molecular target: Fuc(a1-3)[Gal(b1-4)]GlcNAc6S
Outline: as §1

[30] = molecular target: Fuc(a1-3)[Gal3S(b1-4)]Glc
Outline: as §1

[31] = molecular target: Fuc(a1-3)[Gal3S(b1-4)]GlcNAc
Outline: as §1

[32] = molecular target: Fuc(a1-3)[Gal3S(b1-4)]GlcNAc6S
Outline: as §1

[33] = molecular target: Fuc(a1-3)[GalNAc(b1-4)]GlcNAc
Outline: as §1

[34] = molecular target: Fuc(a1-3)[GalNAc(b1-4)]GlcNAc6S
Outline: as §1

[35] = molecular target: Fuc(a1-4)GlcNAc
Outline: as §1

[36] = molecular target: Fuc(b1-3)GlcNAc
Outline: as §1

[37] = molecular target: Gal(a1-2)Gal
Outline: as §1

B1: MGL2 (Mus musculus), Q8JZN1 (protein)
chain: MTMRYENFQNLEREEKNQEMRNGDKKGGMESPKFALIPSQSFLWRILSWTHLLLFSLGLSLLLLVVISVIGSQNSQLRRDLGTLRAILDNTTSKIKAEFQSLDSRADNFEKGISSLKVDVEDHRQELQAGRDLSQKVTSLESTLEKREQALKTDLSDLTDHVQQLETDLKALTCQLANLKNNGSEVACCPLHWTEHEGSCYWFSESEKSWPEADKYCRLENSHLVVVNSLEEQNFLQNRLANVLSWMGLTDQNGPWRWVDGTDFDKGFKNWRPLQPDNWHGHMLGGGEDCAHFSYDGRWNDDVCQRHYHWICETELGKASSAHSPQLIASVP
[1]
  glycan array binding signal (z-score): -0.269
[2]
  glycan array binding signal (z-score): -0.034
[3]
  glycan array binding signal (z-score): -0.15
[4]
  glycan array binding signal (z-score): -0.032
[5]
  glycan array binding signal (z-score): -0.314
[6]
  glycan array binding signal (z-score): -0.329
[7]
  glycan array binding signal (z-score): -0.211
[8]
  glycan array binding signal (z-score): -0.224
[9]
  glycan array binding signal (z-score): -0.012
[10]
  glycan array binding signal (z-score): -0.156
[11]
  glycan array binding signal (z-score): -0.19
[12]
  glycan array binding signal (z-score): 0.469
[13]
  glycan array binding signal (z-score): -0.204
[14]
  glycan array binding signal (z-score): -0.156
[15]
  glycan array binding signal (z-score): 0.748
[16]
  glycan array binding signal (z-score): 12.2
[17]
  glycan array binding signal (z-score): -0.198
[18]
  glycan array binding signal (z-score): -0.012
[19]
  glycan array binding signal (z-score): -0.25
[20]
  glycan array binding signal (z-score): -0.064
[21]
  glycan array binding signal (z-score): -0.17
[22]
  glycan array binding signal (z-score): -0.28
[23]
  glycan array binding signal (z-score): -0.046
[24]
  glycan array binding signal (z-score): -0.202
[25]
  glycan array binding signal (z-score): -0.217
[26]
  glycan array binding signal (z-score): -0.203
[27]
  glycan array binding signal (z-score): -0.12
[28]
  glycan array binding signal (z-score): -0.15
[29]
  glycan array binding signal (z-score): -0.113
[30]
  glycan array binding signal (z-score): -0.218
[31]
  glycan array binding signal (z-score): -0.187
[32]
  glycan array binding signal (z-score): -0.185
[33]
  glycan array binding signal (z-score): 0.6
[34]
  glycan array binding signal (z-score): 0.036
[35]
  glycan array binding signal (z-score): 0.024
[36]
  glycan array binding signal (z-score): -0.225
[37]
  glycan array binding signal (z-score): -0.276
